From PubChem BioAssay AID1745853 (National Center for Advancing Translational Sciences (NCATS), 2022)
This is one part of the list. These are further read-outs of the screen, such as a control signal, another cell line or another target. No call is given for them.

Columns and labels:
Assay in all cases: Primary Screen for Target Class Profiling of Small Molecule Inhibitors of Methyltransferases
[1] = biological target: Glycine N-methyltransferase (Homo sapiens) (UniProt Q14749); conditions: purified enzyme, MTase-Glo SAH luminescence; measured here: GNMT inhibition; at 40 µM; stronger effect = lower value
Summary of the method: (§1)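 Each enzyme was reacted with SAM and its substrate, with compounds tested once at 40 uM; SAH formed was read by MTase-Glo luminescence.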

[2] = biological target: Guanidinoacetate N-methyltransferase (Homo sapiens) (UniProt Q14353); conditions: purified enzyme, MTase-Glo SAH luminescence; measured here: GAMT inhibition; at 40 µM; stronger effect = lower value
Summary of the method: as §1

[3] = biological target: Histamine N-methyltransferase (Homo sapiens) (UniProt P50135); conditions: purified enzyme, MTase-Glo SAH luminescence; measured here: HNMT inhibition; at 40 µM; stronger effect = lower value
Summary of the method: as §1

[4] = biological target: Nicotinamide N-methyltransferase (Homo sapiens) (UniProt P40261); conditions: purified enzyme, MTase-Glo SAH luminescence; measured here: NNMT inhibition; at 40 µM; stronger effect = lower value
Summary of the method: as §1

[5] = biological target: Phenylethanolamine N-methyltransferase (Homo sapiens) (UniProt P11086); conditions: purified enzyme, MTase-Glo SAH luminescence; measured here: PNMT inhibition; at 40 µM; stronger effect = lower value
Summary of the method: as §1
% is set by controls: 0 for no effect and ±100 for the full control effect.

Row | SMILES | activity change, negative = inhibition [1] [%] | activity change, negative = inhibition [2] [%] | activity change, negative = inhibition [3] [%] | activity change, negative = inhibition [4] [%] | activity change, negative = inhibition [5] [%]
1 | Cc1cc(CN2CCc3nn(C)c(=O)n3CC2)n(C)n1 | -0.883 | -5.11 | 0.978 | 0.607 | 1.99
2 | COc1cc(/C=C/C(=O)OC[C@H]2O[C@@H](OC3OC=C(C(=O)O)C4C(O)CC(C)(O)C34)[C@H](O)[C@@H](O)[C@@H]2O)cc(OC)c1O (some centres undefined) | 4.45 | 7.85 | 8.85 | -3.61 | 7.8
3 | C=C1CC2C3(C)C=CC(=O)OC(C)(C)C3CC(OC(C)=O)C2(C)C2C(=O)OC(C)C(=O)C12C (centres undefined) | 2.86 | 4.93 | 6.07 | -9.93 | 1.81
4 | COCCC1(NC(=O)c2ccccc2)CCN(C(=O)c2ocnc2C)CC1 | -0.199 | -1.35 | 0.732 | 0.405 | -0.814
5 | CCN(CC)CCNC(=O)c1cc2n(n1)CC(C)(C(=O)NCc1ccc(F)cc1)N(C)C2=O (centres undefined) | 10.1 | 0 | 6.27 | 10.7 | 4.07
6 | COc1cc(CNC(=O)c2nc(C(O)c3ccccn3)oc2C)cc(OC)c1 (centres undefined) | -7.12 | -1.66 | -1.66 | -11.3 | -12.1
7 | COc1ccc(C(=O)CSc2nnc3n(C)c(=O)c4ccc(C(=O)NC5CCCCC5)cc4n23)cc1 | 2.54 | 0 | 2.65 | 2.31 | 4.06
8 | CCCn1c(=O)c2ccccc2n2c(=O)n(CC(=O)Nc3ccc(C)cc3C)nc12 | 0.229 | 2.83 | 3.74 | -0.227 | 1.27
9 | Nc1ccc(-c2nc3ccc(-c4nc5ccc(N)cc5[nH]4)cc3[nH]2)cc1 | -22 | -10.7 | -13.4 | -15 | -18.3
10 | Cc1cc(C)cc(NC(=O)Cn2c(=O)oc3cc(S(=O)(=O)N4CCCCC4)ccc32)c1 | -3.42 | -0.109 | -2.85 | 1.02 | -10.3
11 | CCN(CC)c1cc(CCC(=O)NCc2cc(F)ccc2F)ccn1 | -3.83 | -8.41 | -32.5 | -11.5 | -9.99
12 | Cc1cc(Cl)ccc1OCC(=O)N[C@@H]1CCOC[C@H]1OCC(=O)O | -2.25 | -6.29 | -1.4 | -8.12 | -4.18
13 | Cc1ccc(C(=O)Cn2nc3n(C)c(=O)c4ccc(C(=O)NC5CCCC5)cc4n3c2=O)c(C)c1 | 6.3 | 0 | 3.74 | 1.11 | 4.38
14 | CCN(CC)c1cc(CCC(=O)N2CCC(C)CC2)ccn1 | 0.276 | -1.74 | -33.1 | -2.13 | 0.273
15 | COc1cccc(N2C(=O)c3cc4occc4n3CC2(C)C(=O)NC2CCC(C)CC2)c1 (centres undefined) | -8.27 | 3.25 | -10.6 | -2.51 | -7.85
16 | COc1cccc(CN2C(=O)c3cc4occc4n3CC2(C)C(=O)NC2CCCC(C)C2C)c1OC (centres undefined) | -10.6 | -0.029 | -2.54 | -9.27 | -5.31
17 | CC(Oc1ccc2[nH]nc(/C=C/c3cnn(CCO)c3)c2c1)c1c(Cl)cncc1Cl (centres undefined) | -14.8 | – | -11.5 | – | –
18 | COCCCNc1nc2c(-c3cccc(F)c3)nnn2c2ccc(Cl)cc12 | 3.52 | 0.792 | 10.6 | 6.45 | 2.43
19 | Cc1ccc([C@H]2Nc3ccc(S(=O)(=O)Nc4cccc(Cl)c4C)cc3[C@H]3C=CC[C@H]32)cc1 | -9.9 | -10.2 | -18.8 | -26.6 | -11.9
20 | CCc1ccc(N2C(=O)c3cc(C(C)(C)C)nn3CC2(C)C(=O)NCc2ccccc2)cc1 (centres undefined) | -5.74 | 0 | -2.22 | -6.64 | -1.68
21 | Cc1cnc(C(=O)NC2C[C@H]3CC[C@@H](C2)N3S(=O)(=O)c2ccc(C)c(F)c2)cn1 (some centres undefined) | -6.25 | -5.8 | -3.91 | -14.9 | -17.9

Row | SMILES | activity change, negative = inhibition [1] [%] | activity change, negative = inhibition [2] [%] | activity change, negative = inhibition [3] [%] | activity change, negative = inhibition [4] [%] | activity change, negative = inhibition [5] [%]
22 | CC(=O)Nc1ccc(CN2CC(Oc3ccc4c(c3)OCO4)C2)cc1 | -6.5 | -9.84 | -4.34 | -13.1 | -10.6
23 | CS(=O)(=O)CCNCc1ccc(-c2ccc3ncnc(Nc4ccc(OCc5cccc(F)c5)c(Cl)c4)c3c2)o1 | -3.98 | 3.2 | 1.2 | -7.85 | 1.39
24 | CN(CCCNC(=O)C1(CCO)CC12CCOCC2)C1CCCCC1 (centres undefined) | -3.06 | -2.36 | -2.32 | -0.81 | 1.8
25 | C=CC(=O)Nc1cccc(Nc2nc(Nc3ccc(N4CCN(C(C)=O)CC4)cc3OC)ncc2C(F)(F)F)c1 | -19.2 | 0.484 | -26.2 | -14.3 | -16
26 | C/C(=N\N=C(N)N)c1ccc(NC(=O)Nc2ccc(/C(C)=N/N=C(N)N)cc2)cc1 | – | -22.5 | – | -30.9 | -26.4
27 | COCCNS(=O)(=O)c1cc(C(=O)O)cc(-c2ccncc2)c1 | -4.25 | -1.65 | 0.41 | -4.95 | 7.6
28 | O=C1Cc2c([nH]c3ccc([N+](=O)[O-])cc23)-c2ccccc2N1 | – | -4 | – | -21.3 | -3.26
29 | OCC1=C[C@@H](O)[C@@H]2C=CO[C@@H](O[C@@H]3O[C@H](CO)[C@@H](O)[C@H](O)[C@H]3O)[C@H]12 | 4.7 | 7.33 | 6.04 | -5.08 | 3.33
30 | Cc1ccc(NC(=O)C(C)C)cc1C1CCN(Cc2ccc(Oc3ccc(F)c(F)c3)cc2)CC1 | -7.42 | -8.53 | 3.47 | -32.9 | -7.73
31 | C=CCc1cc(OC)c(OC(C)C(O)c2ccc(O)c(OC)c2)c(OC)c1 (centres undefined) | 1.3 | 2.36 | 7.6 | -10.8 | -4.41
32 | COc1ccccc1NC(=O)Nc1cccc(-c2nnc3n2CCCC3)c1 | -10.3 | -6.04 | -19 | -13.6 | -4.96
33 | COc1ccccc1C(CC(=O)NCC(C)C)c1cn(C)c2ccccc12 (centres undefined) | -7.06 | -7.39 | -5.96 | -10.2 | -10.4
34 | CO[C@@H]1COCC[C@@H]1N[C@@H]1CC[C@@](C(=O)N2CCc3ncc(C(F)(F)F)cc3C2)(C(C)C)C1 | -4.35 | -10.9 | 7.46 | -13.8 | -2.56
35 | O=c1[nH]cnc2c([C@@H]3N[C@H](CO)[C@@H](O)[C@H]3O)c[nH]c12 | -4.22 | -8.65 | -2.21 | -19.4 | -3.6
36 | COc1ccc(CCNCc2ccc(OCc3ccc(Cl)nc3)c(OC)c2)cc1OC | – | 12.2 | – | -7.78 | 2.79
37 | Cc1noc(C)c1S(=O)(=O)N1CCC2(C1)C(=O)N(c1ccccc1)c1ccccc12 (centres undefined) | -3.48 | -1.65 | -2.71 | -7.75 | -13
38 | O=S(=O)(c1cccc2c(I)cccc12)N1CCCNCC1 | -3.1 | 8.17 | 2.27 | -18.2 | -3.93
39 | CC1(C(=O)NC2CCCCC2)Cn2c(cc3occc32)C(=O)N1Cc1ccc(F)cc1 (centres undefined) | 4.77 | -14.7 | 7.69 | 10.7 | 3.76
40 | COc1ccc(-c2cc3nc4c(c(=O)n3[nH]2)CN(S(=O)(=O)c2cccs2)CC4)cc1 | -21.7 | -18.6 | -39 | -14.4 | -47.9
41 | Cc1nn(C)cc1CN(C)C(=O)c1cc2cn(C(C)C)cc2s1 | -7.99 | -2.62 | -3.35 | 0.959 | -14.8
42 | CC(=O)Nc1sc2c(c1-c1nc3ccccc3s1)CNC2 | -1.77 | -13.8 | -10 | -27.9 | -10.4

Row | SMILES | activity change, negative = inhibition [1] [%] | activity change, negative = inhibition [2] [%] | activity change, negative = inhibition [3] [%] | activity change, negative = inhibition [4] [%] | activity change, negative = inhibition [5] [%]
43 | Cc1nc(C)c(C(=O)N2CCC3(CC2)NC(=O)CC3C(=O)O)s1 (centres undefined) | -0.04 | 0.957 | -1.71 | 0.518 | 4.09
44 | CN(C(=O)Cn1nc2n(C)c(=O)c3ccc(C(=O)NC4CCCC4)cc3n2c1=O)c1ccc(F)cc1 | -0.82 | 2.85 | -0.947 | -9.37 | -4.67
45 | CCCn1c(=O)c2ccc(C(=O)NC3CCCCC3)cc2n2c(SCC(=O)c3ccc(C)cc3)nnc12 | 6.16 | 0 | 8.46 | 7.77 | 6.36
46 | CC(CN1C(=O)c2cc3occc3n2CC1(C)C(=O)NC1CCCCC1)c1ccccc1 (centres undefined) | 5.72 | 0 | 8.24 | 13.1 | 7.09
47 | O=[S+]([O-])(c1cccs1)N1CCn2c(nnc2C2CC2)C1 | -6.5 | -6.36 | -1.61 | -10 | -18.6
48 | CC1CCCCC1NC(=O)C1(C)Cn2c(cc3occc32)C(=O)N1Cc1ccccc1 (centres undefined) | 2.92 | 0.873 | 5.45 | -2.81 | 2.31
49 | COc1ccc2[nH]c(S(=O)Cc3ncc(C)c(OC)c3C)nc2c1 (centres undefined) | 3.12 | -1.1 | 8.67 | -11.3 | -1.42
50 | CC1(C(=O)NC2CCCCC2)Cn2c(ccc2-c2ccccc2)C(=O)N1CCc1cccs1 (centres undefined) | 1.66 | 5.29 | 0.894 | 0.585 | 1.19
51 | CC(=O)NCCc1c[nH]c2ccc(O)cc12 | -0.42 | 9.08 | 5.46 | -6.21 | 7.66
52 | CC1(C)CC(=O)C2=C(C1)NC(=S)NC2c1cccc(O)c1 (centres undefined) | -12.3 | -12.8 | -2.22 | -18.1 | -4.92
53 | O=C(CC(c1ccccc1)c1ccccc1Cl)N1CCOCC1 (centres undefined) | -5.48 | -6.83 | -4.99 | -10.7 | 0.944
54 | O=C(Cn1cccc1-c1nc(-c2ccccc2)no1)N1CCc2ccccc21 | -4.37 | -4.97 | -2.98 | -6.06 | -6.44
55 | O=C1OC(/C=C/c2ccccc2)=NC/1=C\c1cccnc1 | – | 3.09 | – | -15.1 | -5.66
56 | CCCSCCCN1C(=O)c2cc3sccc3n2CC1(C)C(=O)NC1CCCCCCC1 (centres undefined) | 2.57 | 0.63 | 8.35 | 1.12 | 1.18
57 | O=C(NCCc1nc2cccnc2n1-c1ccccc1)c1cccnc1 | 14.5 | 3.66 | 12.9 | 7.13 | 10.6
58 | Cc1ccccc1N(C)C1CN([S+](=O)([O-])c2ccccc2)C1 | -5.01 | 4.52 | 0.581 | -3.11 | 2.17
59 | CCCCOc1ccc2c(-c3ccccc3)cc(=O)oc2c1 | -4.05 | 0 | 7.06 | -0.424 | -8.54
60 | Cc1ccccc1NC(=O)N1CCn2cccc2C1Cc1ccccc1 (centres undefined) | -5.57 | 0 | -7.47 | -3.36 | -3.73
61 | COc1ccc(-c2cnc(NC(=O)Cc3ccc(F)cc3)c3c2CCO3)cn1 | -7.98 | -1.16 | -9.2 | -6.21 | 4.03
62 | COC(=O)C12C(=O)C(C)=C(O)C1(C)C(C)=CC1C34CCC(OC3=O)C(C)(C)C4CCC12C (centres undefined) | 4.65 | 6.49 | 5.41 | -6.48 | 6.26
